Assay results: paper PMC4336329 (PLoS ONE, 2015)
Among all 310,000 compounds or so, about 14,000 (4.5%) showed an effect of 50% or more. The effect is printed as a negative number. The list shows a part of the results.

target: human ether-à-go-go-related gene (hERG) potassium channel (human, UniProt Q12809); assay: primary screen, population patch clamp on CHO cells stably expressing hERG
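Note: peak tail current of the secondary pulse compared with the same well before compound.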

Sequence of human ether-à-go-go-related gene (hERG) potassium channel (Q12809 whole entry, looked up): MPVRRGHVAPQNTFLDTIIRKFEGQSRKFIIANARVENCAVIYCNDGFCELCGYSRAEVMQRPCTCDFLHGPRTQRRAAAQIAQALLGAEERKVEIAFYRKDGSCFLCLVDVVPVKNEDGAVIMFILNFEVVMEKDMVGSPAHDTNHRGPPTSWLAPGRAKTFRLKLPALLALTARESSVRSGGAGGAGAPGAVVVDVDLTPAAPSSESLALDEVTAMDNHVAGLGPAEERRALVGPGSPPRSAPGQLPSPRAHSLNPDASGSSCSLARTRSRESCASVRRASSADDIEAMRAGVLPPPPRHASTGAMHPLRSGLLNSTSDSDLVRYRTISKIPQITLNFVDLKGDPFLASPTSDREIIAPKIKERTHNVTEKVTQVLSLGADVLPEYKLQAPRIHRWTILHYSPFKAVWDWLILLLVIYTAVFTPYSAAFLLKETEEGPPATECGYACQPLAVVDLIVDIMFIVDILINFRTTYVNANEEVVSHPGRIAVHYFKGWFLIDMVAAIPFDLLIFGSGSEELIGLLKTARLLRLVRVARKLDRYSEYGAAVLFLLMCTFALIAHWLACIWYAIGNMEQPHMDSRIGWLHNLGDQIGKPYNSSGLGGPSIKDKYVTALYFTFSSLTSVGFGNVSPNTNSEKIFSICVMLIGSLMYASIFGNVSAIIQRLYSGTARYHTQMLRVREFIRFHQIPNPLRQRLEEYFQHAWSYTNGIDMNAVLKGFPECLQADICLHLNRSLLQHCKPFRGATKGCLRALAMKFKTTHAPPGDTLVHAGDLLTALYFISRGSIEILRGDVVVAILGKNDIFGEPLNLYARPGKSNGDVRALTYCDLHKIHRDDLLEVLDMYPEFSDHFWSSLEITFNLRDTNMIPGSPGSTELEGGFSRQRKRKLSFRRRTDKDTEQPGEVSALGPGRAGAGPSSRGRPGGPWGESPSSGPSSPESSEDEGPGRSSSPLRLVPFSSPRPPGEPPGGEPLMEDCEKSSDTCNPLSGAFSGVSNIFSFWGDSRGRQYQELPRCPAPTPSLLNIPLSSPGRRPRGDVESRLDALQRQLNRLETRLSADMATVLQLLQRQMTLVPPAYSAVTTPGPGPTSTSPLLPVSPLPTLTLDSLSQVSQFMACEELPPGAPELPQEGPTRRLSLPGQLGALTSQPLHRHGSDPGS

| Compound | hERG current change (%, negative = inhibition) at 10uM [%] |
| --- | --- |
| COc1ccc(-c2cc(C(F)(F)F)c(C#N)c(SCC(=O)Nc3ccccc3C#N)n2)cc1 | 6.76 |
| Nc1nc(/C=C/c2ccc(F)cc2)nc(-c2ccccc2O)n1 | 17.8 |
| COc1ccc(C(=O)Nc2nc3ccccc3[nH]2)cc1S(=O)(=O)N1CCCC1 | -52.8 |
| Cc1nn(C)c(Cl)c1CN1CCC(CO)(CC2CCCCO2)CC1 (centres unmarked) | 8.45 |
| COc1cc(/C=N/NC(=O)c2cccc(S(=O)(=O)N3CCCCC3)c2)cc(Br)c1O | -18 |
| COc1ccc(C2=C(SC)CC2=NC(C)(C)C)cc1 | -16.8 |
| CC1=C(C#N)C(C)C2=C(CC(C)(C)CC2=O)N1 (centres unmarked) | -6.59 |
| N=c1c(C(=O)NCC2CCCO2)cc2c(=O)n3ccccc3nc2n1Cc1ccccc1Cl (centres unmarked) | -67.9 |
| CCC1CCCCN1C(=O)CCNS(=O)(=O)c1ccc2c(c1)oc(=O)n2C (centres unmarked) | -6.82 |
| Cc1cccc(S(=O)(=O)Nc2ccc(-c3nc4ccc(C)cc4s3)cc2)c1 | 26.2 |
| Cc1cc(C)c(S(=O)(=O)c2ccccc2)c(Cl)n1 | -3.45 |
| O=C(Nc1ccc(S(=O)(=O)N2CCOCC2)cc1)C1CCCCC1 | -1.38 |
| CN(C)CCNC(=O)Cn1ccc2cc(S(=O)(=O)N3CCCCCC3)ccc21 | -25.4 |
| CCCCC(=O)Nc1cccc(C(C)O)c1 (centres unmarked) | 19.8 |
| CC(=O)c1ccc(N2CCN(C(=O)c3n[nH]c4ccccc34)CC2)cc1 | -34.3 |
| CC(C)(CNC(=O)c1cc2c(s1)CCCC2)N1CCOCC1 | -30.4 |
| Cc1ccc(NC(=O)COC(=O)C2(c3ccc(Cl)cc3)CCCC2)cc1 | 17.4 |
| CC(C)Oc1cccc(C(=O)C2CCCN(C(=O)c3ccoc3)C2)c1 (centres unmarked) | -14.7 |
| O=S(=O)(Nc1ccc(S(=O)(=O)N2CCCC2)cc1)c1ccccc1Br | 3.27 |
| NC(=O)c1cc(S(=O)(=O)NCCc2ccc(Cl)cc2)cs1 | 13.9 |
| CC(C)(C)c1ccccc1OCCCCCn1ccnc1 | -37.7 |
| COc1ccc(-c2ccnc(SCC(=O)N3CCOCC3)n2)cc1 | 0.946 |
| Cc1c(C(=O)N/N=C/c2cccnc2)sc(=S)n1C | -9.11 |

| Compound | hERG current change (%, negative = inhibition) at 10uM [%] |
| --- | --- |
| CC(C)(C)c1ccc(C(=O)NC(=S)NCc2cccnc2)cc1 | -22.9 |
| Cc1cc(C)c2cc(CN(CCN(C)C)C(=O)Nc3ccccc3Cl)c(=O)[nH]c2c1 | -55.3 |
| O=C(COC(=O)c1ccc(CN2CCCC2=O)cc1)Nc1ccc(F)cc1 | -18.8 |
| Cc1ccc(C)c(/C=C2\CCn3c2nc2cc(C(=O)O)ccc2c3=O)c1 | 10.2 |
| Nc1ccc(Oc2ncccn2)c(Cl)c1 | 10.3 |
| O=C(Nc1cccc2ccccc12)N1CC=CCC1 | 6.13 |
| O=C(c1ccccc1)N1CCN(CC#CC2(O)CCCCC2)CC1 | 21 |
| COc1cc(CNCCO)cc(Cl)c1OCc1ccc(Cl)cc1Cl.Cl | -7.34 |
| CCOC(=O)/C(C#N)=C(\N)C(C)C(=O)Nc1ccccn1 (centres unmarked) | 5.17 |
| CCN(Cc1ccncc1)C(=O)c1cc(Br)cc(Br)c1O | 0.759 |
| O=C(COC(=O)c1ccc(Br)o1)NCC(=O)Nc1ccc(F)cc1 | 0.699 |
| Cc1nn(CC(=O)Nc2ccc3c(c2)OCO3)c(C)c1[N+](=O)[O-] | -5.55 |
| CCCN(CCC)CCCNC(=O)c1cn(CC)c2ccc(S(=O)(=O)N(C)C3CCCCC3)cc2c1=O | -74.3 |
| CCn1c(C)nc2cc(C(N)=O)ccc21 | 19.5 |
| Cc1cc(Nc2ccccc2)n(C(=O)c2ccc(N)cc2)n1 | -10.9 |
| CC1CCN(C(=O)C2CCN(S(=O)(=O)c3cnc[nH]3)CC2)CC1 | 6.99 |
| CCOC(=O)N1CC=C2C(C#N)=C(N)C(C#N)(C#N)[C@H](c3cccs3)[C@H]2C1 | -18.4 |
| Cc1ccc(S(=O)(=O)N2CCCCC2)cc1C(=O)NCCc1ccccc1 | 11.2 |
| Cc1ccc(NC(=O)c2ccc(=O)[nH]c2)cc1S(=O)(=O)N1CCCCC1 | -17.9 |
| CCOC(=O)c1cc2c(ccn2-c2ccc(F)cc2)n1CC(=O)N(CC)CC | -8.91 |
| Cn1c(=O)n(Cc2ccccc2)c(=O)c2c1nc1n2CCCN1C1CCCCC1 | -6.46 |
| Cc1cc(N)c(-n2cc3c(=O)n(C)c(=O)n(C)c3c2)cc1C | -1.57 |
| COc1ccc(-c2cc(C(=O)N/N=C/c3cccnc3)c3cc(C)cc(C)c3n2)cc1 | 15 |

| Compound | hERG current change (%, negative = inhibition) at 10uM [%] |
| --- | --- |
| OC(c1ccccc1)c1nc2ccccc2s1 (centres unmarked) | -12.3 |
| C=C(C)c1sc(-c2ccc(Cl)cc2)nc1C | 14 |
| COc1ccc(OCC(=O)Nc2ccncc2)cc1 | -17.3 |
| CN(CC(=O)Nc1cccc(Cl)c1)S(=O)(=O)c1ccc2[nH]c(=O)oc2c1 | -3.67 |
| Cc1cc2nnc(SCC(=O)N3CCCCCC3)n2c(N)n1 | -5.01 |
| CC(C)CC(=O)N1CCN(Cc2cccc(Cl)c2)CC1 | 7.42 |
| CCN1CCN(c2ccc(NC(=O)c3ccccc3F)cc2Cl)CC1 | -70.1 |
| COc1ccc(C(C(O)C(=O)c2c[nH]c3ccccc23)N2CCN(c3ccc(OC)cc3)CC2)cc1 (centres unmarked) | -7.36 |
| O=C(COc1ccccc1Cl)Nc1ccc(C(=O)c2ccc(C(=O)O)cc2)cc1 | 11.7 |
| O=S(=O)(c1ccc(OCC(O)CN2CCN(c3ccccc3Cl)CC2)cc1)N1CCOCC1 (centres unmarked) | -34.7 |
| COC(=O)c1ccc(C)c(NC(=O)Cc2ccc([N+](=O)[O-])cc2)c1 | 0.529 |
| COc1cccc(C2C(C#N)=C(N)Oc3cc(C)[nH]c(=O)c32)c1OC (centres unmarked) | -10.4 |
| CN(CC(=O)N1CCN(C2CCCCC2)CC1)S(=O)(=O)c1cccc2nsnc12 | -24 |
| COc1ccc2nc(NC(=O)c3ccc([N+](=O)[O-])o3)sc2c1 | 14.3 |
| CCOc1ccccc1N1CCN(C(=O)CSc2ccc3c(c2)OCCO3)CC1 | -21 |
| COc1cc(C(=O)NCC(=O)Nc2ccc(F)c(F)c2)ccc1OCC(=O)N1CCOCC1 | 13.5 |
| CCOC(=O)CSc1nc2cccnc2n1-c1ccc(F)cc1 | -1.48 |
| COc1ccc(C(=O)CSc2ccccc2C(=O)O)cc1 | 22.5 |
| CCN(CC(=O)Nc1cc(Cl)ccc1C)C(=O)c1ccc(N2CCCC2=O)cc1 | 10.1 |
| Cn1c(C(=O)N/N=C/c2ccccc2)cc2ccccc21 | 13.8 |
| Cc1cc(C)n(-c2nc3ccccc3nc2N2CCCC2)n1 | -8.74 |
| Cc1ccc2c(Cl)c(C(=O)Nc3ccc4c(c3)OCO4)sc2c1 | 2.7 |
| CCN(CC(=O)NCCCN1CCOCC1)S(=O)(=O)c1ccc(Cl)cc1 | -18.7 |

| Compound | hERG current change (%, negative = inhibition) at 10uM [%] |
| --- | --- |
| NS(=O)(=O)c1ccc(CCNC(=O)CCS(=O)(=O)c2ccc(Br)cc2)cc1 | 19.2 |
| CCC(C)(C)n1nnnc1C(c1ccccn1)N1CCCCC1 (centres unmarked) | -4.06 |
| CN(CCNC(=O)c1ccc(N2CCCC2=O)cc1)CCc1ccccc1 | -43.2 |
| Cc1cc(Cl)ccc1NC(=S)NCC(C)C | 11.6 |
| Cc1ccc(CSc2n[nH]c(N)n2)cc1 | 12.5 |
| CCOC(=O)N1CCN(C(=O)C2CCN(S(=O)(=O)c3ccc(NC(C)=O)cc3)CC2)CC1 | 23.1 |
| COc1cc(OC)nc(NC(=O)NS(=O)(=O)c2ccccc2Cl)n1 | 21.3 |
| Nc1ncnc2c1ncn2[C@@H]1O[C@H](COP(=O)(O)O)[C@@H](O)[C@H]1O.O | -1.22 |
| COC(=O)c1ccc(OC(=O)c2cccs2)cc1 | 22 |
| NC(=O)C1=C[C@@H](c2ccc(C(F)(F)F)cc2)C[C@@H](OCCCCO)O1 | -9.66 |
| COc1ccc(C(=O)NCc2cnn(C)c2C)cc1OC1CCN(C(C)C)CC1 | 8.77 |
| COc1ccc(/C=C2/C(=O)ON=C2c2ccccc2)cc1OC | -1.25 |
| CC(O)CNc1nc2c(c(=O)n(Cc3cccc(Cl)c3)c(=O)n2C)n1C (centres unmarked) | 2.33 |
| CS(=O)(=O)Nc1cccc(C2=NN(C(=O)c3ccccc3Cl)C(c3ccccc3O)C2)c1 (centres unmarked) | -6.02 |
| CCc1ccc(-c2cc(C(F)(F)F)n3nc(C(=O)Nc4c(C)nn(Cc5ccccc5Cl)c4C)cc3n2)s1 | 0.684 |
| Cc1ccn(C(=O)c2cc3cc(Cl)ccc3oc2=O)n1 | 3.44 |
| COc1ccccc1-c1cc(C(F)(F)F)nc(N2CCCC2)n1 | 22.6 |
| COc1ccc(-c2noc(C3CCCN(C(=O)c4c(F)cccc4F)C3)n2)cc1OC (centres unmarked) | 5.33 |
| COc1ccc2[nH]c(=O)c(CN(Cc3ccco3)Cc3nnnn3Cc3ccccc3)cc2c1 | 3.49 |
| O=C(NCCc1nccs1)C1CCC(=O)N(Cc2cccc(C(F)(F)F)c2)C1 (centres unmarked) | 9.82 |
